Results reported in paper PMC12136788.
The other results are listed elsewhere or left out.

T1: UNK ZnF1-3 (human, UniProt Q9C0B0 31-174)
T1 sequence: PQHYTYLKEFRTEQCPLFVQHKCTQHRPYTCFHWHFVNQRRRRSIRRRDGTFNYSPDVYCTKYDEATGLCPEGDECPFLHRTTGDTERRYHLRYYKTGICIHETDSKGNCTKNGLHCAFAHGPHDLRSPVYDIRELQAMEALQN

B1: 123694707_123702949_1236_CDS_ENSG00000051825_ENST00000606320|human|control|control (ssRNA)
RNA: GGGAGUUCUACAGUCCGACGAUCUCCUGUUCCUGAAUCAGACAUCCAAGCAUUUGGAGUUUCAUCUGGUUUACUGAGGUAAAAAGCACGAGGAUGUGUAGCAGCAGCAAAAUCAGAUUUCUCAAUUGGUGUCUUCUUACUUUGCAACAGAGGAUUGAGCAUCA
B2: chr1:205685097:205685098:-_ENSG00000069275_ENST00000367142|hu_mus|FALSE|FALSE (ssRNA)
RNA: GGGAGUUCUACAGUCCGACGAUCUGUUACACCUAACUGCUGAGCACCGGUUUCCAGUUGAGUCACAUUAAAUGUGUUCCUGUUUGCAUACACGAUUUGAAGGGAAGACCAGAGUGUUAUAAACCACUAAAAAAAAAAGUGAAACAACAGAGGAUUGAGCAUCA
B3: 74721200_74721320_1198_3pUTR_ENSG00000113163_ENST00000380494|human|control|control (ssRNA)
RNA: GGGAGUUCUACAGUCCGACGAUCGUUCAUCCUUAGAGACAGCAUCAGCACAGGCAUCAAAGUACUUCUGUAGCGUGUCAACUUGUCUACAUAAGAUGUCUCUAAAUGUUUCCAUUUCAGCCAACUUCUCACGUAAACUGUGGCCAACAGAGGAUUGAGCAUCA
B4: chr11:102767452:102767453:-_ENSMUSG00000051378_ENSMUST00000021311|mus_hu|FALSE|FALSE (ssRNA)
RNA: GGGAGUUCUACAGUCCGACGAUCCAGGUCCAGCUCCUGGUGCAGGUGGCUACAGGUCCAAGAGGGGUAUCCAGCAGAGGGGCCGGUAGGUUAGGACACCUUGGUGGUCAGGACAUUCUGGCGGUCAGGACACCUUGGUGACGCCAACAGAGGAUUGAGCAUCA
B5: chr1:32384726:32384727:-_ENSG00000184007_ENST00000602725|perfect_dup|FALSE|FALSE (ssRNA)
RNA: GGGAGUUCUACAGUCCGACGAUCAAAAAAAAAUCAAUAAAUCUUGAAAUGUUUCACAGCAGAAAACAUUAAAAAGACCACUAAAAUGCCUAUUAUCAAUCAGUGUUUUCUCUAUUCAACUUGUUUAUUCCUUAUGAAGCUUCUCAACAGAGGAUUGAGCAUCA
B6: chr4:62048941:62048942:+_ENSMUSG00000066150_ENSMUST00000084526|mus_mus|FALSE|FALSE (ssRNA)
RNA: GGGAGUUCUACAGUCCGACGAUCUUGAGACUUUCGAAGCAGACCCUCUCGGGCUAUCUUGAGUCCUUCAUAAAACAUUGCUAGUAAAAACACUGCCACGAAGGCUCCAGCCAUUUCUCCAGGUGUAUUGAUUACCAAACCGGACAACAGAGGAUUGAGCAUCA
B7: chr6:109703465:109703466:-_ENSG00000135535_ENST00000310786|hu_hu|motif|central (ssRNA)
RNA: GGGAGUUCUACAGUCCGACGAUCAGUGGUGACCAGCGGGAGGGACGUCACCGGCGCCGAGGUUACGUUGGAGAUGGGCGCGGAAGUCGUCACGUUCGGGUGCUGGGUCGUGUUCUUGUCCGCGGACAGCACGCAGAGCACGCCCAACAGAGGAUUGAGCAUCA
B8: chr5:68553883:68553884:+_ENSG00000134058_ENST00000256443|hu_hu|FALSE|FALSE (ssRNA)
RNA: GGGAGUUCUACAGUCCGACGAUCUCCUUGAAGAGUCAUCAACAUGUAGGCUUUGAUGUGUGAUGGUGUCAGCACAAGACUAUUAUCCUUUAUUAUAACCUCUAGAUCAGUUUCCAUAAAAUCAAAGACAAGGCUAAUAUUAGACAACAGAGGAUUGAGCAUCA
B9: chr5:37680062:37680063:+_ENSMUSG00000029121_ENSMUST00000031004|mus_hu|mus_mus_mus_hu_False|1_88 (ssRNA)
RNA: GGGAGUUCUACAGUCCGACGAUCUUUGGGUGUAGCUGGUACCUCGUACACAGGCCCGUCAUACAUGCCCCUGGAAACCCCUUGCAAUCCAAAAACCUUAUUCCUGAUUUUGACGCGCUGGUACAGGUGCUCCGGGAAUGGCUUCAACAGAGGAUUGAGCAUCA
B10: chr3:154749246:154749247:-_ENSMUSG00000053870_ENSMUST00000066568|mus_mus|FALSE|FALSE (ssRNA)
RNA: GGGAGUUCUACAGUCCGACGAUCGUUUUGUUACGUGUUGUCUCACUAUGAGAAGUUGAGCAAUACAAUCCUCCAUAUCACCUAGAAUUUUAUUGGUCCAAAUUUCAAAAGAAGAUAGAAAAGCUUUAAAGAUAUGUUAUGUUUCAACAGAGGAUUGAGCAUCA
B11: chr1:165664616:165664617:-_ENSG00000143149_ENST00000354775|hu_hu|motif|central (ssRNA)
RNA: GGGAGUUCUACAGUCCGACGAUCCUUUGCAUUUUGAACAGCCAAAUUUACUUCCUUUUCUCCUGAACAUGUGAAAGUAGCGGUCACUCGGCCGGUUGCUGGCUCGAAAGCUUUCUCGGUACCGGAGGCGUCCGCCGGCUCCACCAACAGAGGAUUGAGCAUCA
B12: 45394817_45395722_779_CDS_ENSG00000175387_ENST00000356825|human|control|control (ssRNA)
RNA: GGGAGUUCUACAGUCCGACGAUCUGGAGGCAAAACUGGUGUCUCAACUCUCUGAUAGUGGUAAGGGUUUACACAUACUUCAUCCUUUUUAAGAUUAAAAGCAUAUUCGCAGUUUUCAAUUGCCUUGAGUUCAUGAUGACUGUGCAACAGAGGAUUGAGCAUCA
B13: chr17:27613171:27613172:-_ENSG00000108256_ENST00000225388|hu_hu|FALSE|FALSE (ssRNA)
RNA: GGGAGUUCUACAGUCCGACGAUCCGUAGGAGAGGCCAGAGGAUUUUGACUUUCUAUCUCGUAGUCCUUUGAGAGAAACACUAAAGCACCUUGACUACUGGUGUCUGCUUUCUGCAGGUCACCUAUAUGACUGGGUUCCAAGGACAACAGAGGAUUGAGCAUCA
B14: chr2:9570881:9570882:+_ENSG00000119203_ENST00000238112|hu_mus|hu_hu_hu_mus_False|28_108 (ssRNA)
RNA: GGGAGUUCUACAGUCCGACGAUCACUUGUCUUCUGUAGGAACCAGGGCAGGGCUCCACAGUGAUCCAAAUGGAAAUGACUGAUCAACAGAAGGUCGAUCUCAGCUGGGUCAAUUAAGUCAAUGUAAGGAAGGGCAUCCAUUCCCAACAGAGGAUUGAGCAUCA
B15: 38265305_38266082_1035_CDS_ENSG00000172939_ENST00000311806|human|control|control (ssRNA)
RNA: GGGAGUUCUACAGUCCGACGAUCCUGCAGUGUCAGCAUUAAAACCUUCAUUGGUGGAUAUUUAUGAUAAGGAGCCGCCCCUGUAGCCAAUUCAAUUGCUGUAAUUCCAAAACUCCAAAUAUCAGCUUUGAAAUCAUAACCACGCAACAGAGGAUUGAGCAUCA
B16: chr17:85413340:85413341:+_ENSMUSG00000061130_ENSMUST00000080217|mus_mus|FALSE|FALSE (ssRNA)
RNA: GGGAGUUCUACAGUCCGACGAUCAGUCAAUCUUAAACUAUCAUAAAGGUGUAUGCAAAGGCCUUUAAAAAAACCAAGACUAUAGGAAUAUAAGAAAACUAGUUUUUCAAGAUUCAAAUAACAAAAUGGUUAUAUAAAAGCACACAACAGAGGAUUGAGCAUCA
B17: chr7:44244176:44244177:+_ENSG00000106636_ENST00000223369|hu_mus|hu_hu_hu_mus_False|1_78 (ssRNA)
RNA: GGGAGUUCUACAGUCCGACGAUCACUGUCGCUCCGGACGUAGACAUGGCAAAGAUAGUCUUGUUCUUUGACAGAAGCUCUGCUGCCUUUCCCCGAGCGUUCCACAAUCAGUUGACUUGUAAAGGUCAUGAAUUCCUGAACGCUCAACAGAGGAUUGAGCAUCA
B18: 134976240_134981154_508_3pUTR_ENSMUSG00000059713_ENSMUST00000030606|mouse|control|control (ssRNA)
RNA: GGGAGUUCUACAGUCCGACGAUCGCUUGCUGAAGUUGAUCCUCACUCUGCGAAAGCUCUUGAACAACUGGAAUGUGACCUGGUCAUCGUAGAGGGUGAACAGGGCCUCAAACCUCUCCUUUUGCUCUUGGACCUCAAACACUGCAACAGAGGAUUGAGCAUCA
B19: chr5:134235298:134235299:+_ENSG00000113621_ENST00000507024|hu_mus|FALSE|FALSE (ssRNA)
RNA: GGGAGUUCUACAGUCCGACGAUCUUGUCCUGGAAUCAGCCACCGAAUACUCUCAGUGCGGAUGGUAGCAUACAUAAUGAAACUAAUUAAAAAGAACAAGGAAAACACCAGCAACCAAUCCACAGUCUUUAUCAAAGUGCUGGGCAACAGAGGAUUGAGCAUCA
B20: 103108383_103108503_1224_CDS_ENSG00000136891_ENST00000374902|human|control|control (ssRNA)
RNA: GGGAGUUCUACAGUCCGACGAUCGAGUUUCCACAGAAGGGAAAUAAUAUUAAGAACUUGCUGCAUAACCUGUAGAGGUUCUCGUUCUAUACCAUUCCCAACAGGAGUAGCUAGUUGUGGAGGUACAGCUUCAACCCAGCAUUCCAACAGAGGAUUGAGCAUCA
B21: chr5:121768680:121768681:+_ENSMUSG00000042744_ENSMUST00000119892|mus_hu|FALSE|FALSE (ssRNA)
RNA: GGGAGUUCUACAGUCCGACGAUCUUGGGCAGUUUUCUUUUUGUCGCCUGUGGAUAGUCCACUCACAGUCUCUGGGUUGAUAGACUCUACAGGUGGCCCAAUGCUGACGAUGAGGCCUGACUGUGCCCACUUGGUGGCUUUCCGCAACAGAGGAUUGAGCAUCA
B22: chr6:160200703:160200704:-_ENSG00000120438_ENST00000392168|hu_hu|FALSE|FALSE (ssRNA)
RNA: GGGAGUUCUACAGUCCGACGAUCAUGAAAAGCUCUUAAUUUUGCAACCAGAUCUGUGGAGUCCUGGGCAGCAUUAACUGCUAGUGUAUUGGGAAUAACAAGAAGUGAUCUUGCAAACUCUGCAAUCGCAAGCUGUUCCCGAGACAACAGAGGAUUGAGCAUCA

Target: T1, UNK ZnF1-3
Test: nsRBNS (natural sequence RNA bind-n-seq); RBNS binding buffer (assumed for nsRBNS): 25 mM Tris pH 7.5, 150 mM KCl, 3 mM MgCl2, 0.01% Triton X-100, 500 ug/ml BSA, 20 U/ml SUPERase-In, 4 C; UNK is unkempt and MSI1 is Musashi-1; names of the RNAs are library labels; protein concentration not given here; high values mean tight binding

Row | Binder | binding signal
1 | B1 | 1.14 enrichment R
2 | B2 | 1.84 enrichment R
3 | B3 | 0.712 enrichment R
4 | B4 | 0.867 enrichment R
5 | B5 | 0.842 enrichment R
6 | B6 | 0.912 enrichment R
7 | B7 | 0.65 enrichment R
8 | B8 | 1.12 enrichment R
9 | B9 | 0.813 enrichment R
10 | B10 | 1.64 enrichment R
11 | B11 | 0.651 enrichment R
12 | B12 | 0.594 enrichment R
13 | B13 | 1.32 enrichment R
14 | B14 | 1.3 enrichment R
15 | B15 | 1.15 enrichment R
16 | B16 | 1.69 enrichment R
17 | B17 | 0.509 enrichment R
18 | B18 | 0.88 enrichment R
19 | B19 | 1.82 enrichment R
20 | B20 | 0.85 enrichment R
21 | B21 | 0.417 enrichment R
22 | B22 | 0.921 enrichment R
